No constants are given. Whether binding was seen depends on the method and setting. Binding seen in cells or lysates may run through a third protein. Some results given as binding are weak or reduced against the parent protein; the word gives no strength. Sequences can lack the tags named with a protein.
How the values were obtained:
[1] = target: T1, FLAG–RORα2 WT (transfected) (human) (UniProt P35398); experiment: co-IP; cells transfected with FLAG-RORα2, HA-Tip60 or GFP-pontin, without or with Hismax-SETD7 WT; extracts immunoprecipitated with anti-FLAG, blotted with anti-HA or anti-GFP (Figure 4B,C)
T1 sequence: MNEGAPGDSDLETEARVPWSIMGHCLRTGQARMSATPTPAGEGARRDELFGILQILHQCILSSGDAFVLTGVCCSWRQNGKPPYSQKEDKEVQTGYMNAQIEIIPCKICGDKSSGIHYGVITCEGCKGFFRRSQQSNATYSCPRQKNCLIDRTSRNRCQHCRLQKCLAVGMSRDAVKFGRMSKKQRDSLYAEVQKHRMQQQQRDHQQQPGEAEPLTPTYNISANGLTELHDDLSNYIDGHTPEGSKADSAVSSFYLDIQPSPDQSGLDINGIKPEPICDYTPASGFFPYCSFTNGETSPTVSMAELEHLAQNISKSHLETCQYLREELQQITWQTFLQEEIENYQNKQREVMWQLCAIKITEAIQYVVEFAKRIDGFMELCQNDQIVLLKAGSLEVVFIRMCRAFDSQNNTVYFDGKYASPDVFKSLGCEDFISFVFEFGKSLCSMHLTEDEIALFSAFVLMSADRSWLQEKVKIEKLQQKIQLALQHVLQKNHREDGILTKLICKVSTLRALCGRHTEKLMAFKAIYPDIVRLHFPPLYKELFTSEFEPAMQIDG

Chains of the proteins cited; added tags and fusions are not shown.
UniProt Q9Y265: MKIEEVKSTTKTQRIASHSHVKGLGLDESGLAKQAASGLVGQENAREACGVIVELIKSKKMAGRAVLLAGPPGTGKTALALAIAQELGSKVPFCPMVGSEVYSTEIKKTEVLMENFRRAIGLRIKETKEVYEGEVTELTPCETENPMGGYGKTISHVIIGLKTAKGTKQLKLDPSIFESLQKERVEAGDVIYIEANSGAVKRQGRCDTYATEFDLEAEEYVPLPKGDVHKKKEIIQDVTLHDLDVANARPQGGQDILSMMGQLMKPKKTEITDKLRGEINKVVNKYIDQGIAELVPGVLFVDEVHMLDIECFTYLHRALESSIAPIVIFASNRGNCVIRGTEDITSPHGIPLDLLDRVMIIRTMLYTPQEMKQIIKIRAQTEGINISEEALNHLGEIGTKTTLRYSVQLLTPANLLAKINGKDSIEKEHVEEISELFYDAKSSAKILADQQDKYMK
UniProt Q15596: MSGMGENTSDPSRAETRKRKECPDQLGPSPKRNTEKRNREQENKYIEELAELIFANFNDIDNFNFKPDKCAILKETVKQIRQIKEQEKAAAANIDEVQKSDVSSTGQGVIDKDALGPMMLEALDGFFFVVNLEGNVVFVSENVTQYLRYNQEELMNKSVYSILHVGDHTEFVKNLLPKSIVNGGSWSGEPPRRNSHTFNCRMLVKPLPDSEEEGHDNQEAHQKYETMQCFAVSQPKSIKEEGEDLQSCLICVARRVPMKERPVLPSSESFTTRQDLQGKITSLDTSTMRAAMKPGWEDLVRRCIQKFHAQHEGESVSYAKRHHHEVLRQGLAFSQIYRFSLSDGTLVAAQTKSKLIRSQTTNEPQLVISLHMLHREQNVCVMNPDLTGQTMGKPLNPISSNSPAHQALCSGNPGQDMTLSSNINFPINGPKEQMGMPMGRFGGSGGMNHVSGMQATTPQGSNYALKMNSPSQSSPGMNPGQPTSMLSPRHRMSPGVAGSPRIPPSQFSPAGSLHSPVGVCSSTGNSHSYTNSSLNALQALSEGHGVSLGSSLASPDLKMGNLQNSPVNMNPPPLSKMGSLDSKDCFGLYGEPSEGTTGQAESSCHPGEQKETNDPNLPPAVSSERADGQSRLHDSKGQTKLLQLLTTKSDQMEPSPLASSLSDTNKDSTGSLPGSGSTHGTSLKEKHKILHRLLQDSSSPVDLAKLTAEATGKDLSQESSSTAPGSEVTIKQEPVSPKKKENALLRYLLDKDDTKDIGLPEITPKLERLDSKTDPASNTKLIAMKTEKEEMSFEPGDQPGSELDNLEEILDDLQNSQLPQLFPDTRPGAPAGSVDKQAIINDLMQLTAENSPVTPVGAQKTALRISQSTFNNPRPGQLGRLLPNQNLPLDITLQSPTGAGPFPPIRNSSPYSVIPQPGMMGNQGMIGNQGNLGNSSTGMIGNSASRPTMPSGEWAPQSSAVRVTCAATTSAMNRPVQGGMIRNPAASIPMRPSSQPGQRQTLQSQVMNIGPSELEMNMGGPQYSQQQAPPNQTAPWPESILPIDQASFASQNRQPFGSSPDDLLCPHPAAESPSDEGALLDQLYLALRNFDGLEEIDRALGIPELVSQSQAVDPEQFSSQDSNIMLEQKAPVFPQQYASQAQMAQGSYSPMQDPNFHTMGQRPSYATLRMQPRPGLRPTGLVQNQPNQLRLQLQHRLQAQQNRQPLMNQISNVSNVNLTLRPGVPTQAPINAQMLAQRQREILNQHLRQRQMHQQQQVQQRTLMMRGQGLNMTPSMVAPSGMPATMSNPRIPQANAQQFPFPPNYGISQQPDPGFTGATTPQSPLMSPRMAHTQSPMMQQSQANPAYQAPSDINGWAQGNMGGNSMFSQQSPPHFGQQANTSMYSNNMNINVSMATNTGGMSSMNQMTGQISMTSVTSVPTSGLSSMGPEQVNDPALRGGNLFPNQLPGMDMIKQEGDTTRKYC
UniProt Q92993: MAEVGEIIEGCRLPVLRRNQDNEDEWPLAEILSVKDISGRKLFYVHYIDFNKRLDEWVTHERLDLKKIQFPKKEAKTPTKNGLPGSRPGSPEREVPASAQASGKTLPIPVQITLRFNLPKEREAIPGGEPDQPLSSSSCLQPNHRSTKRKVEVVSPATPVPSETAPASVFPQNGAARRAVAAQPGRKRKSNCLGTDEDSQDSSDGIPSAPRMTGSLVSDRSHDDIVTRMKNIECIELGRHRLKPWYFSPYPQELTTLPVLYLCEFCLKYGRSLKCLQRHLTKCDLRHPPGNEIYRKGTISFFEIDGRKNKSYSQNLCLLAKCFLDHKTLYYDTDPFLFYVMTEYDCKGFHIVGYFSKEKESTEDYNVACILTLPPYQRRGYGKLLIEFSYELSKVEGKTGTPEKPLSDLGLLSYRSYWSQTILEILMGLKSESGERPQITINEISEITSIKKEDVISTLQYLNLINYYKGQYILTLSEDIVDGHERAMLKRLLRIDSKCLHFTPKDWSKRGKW

[2] = target: T2, FLAG-tagged RORα2 (retinoid acid-related orphan receptor α, isoform 2), used for complex purification (human) (UniProt P35398); experiment: co-IP; FLAG-RORα1 or FLAG-RORα2 purified from cell extracts on anti-FLAG (M2) agarose; washed with 20 mM Tris-HCl pH 7.9, 15% glycerol, 1 mM EDTA, 1 mM DTT, 0.05% Nonidet P40, 150 mM KCl; eluted with FLAG peptide; eluates Western-blotted (Figure 2C)
T2 sequence: T1 sequence

FLAG-tagged RORα1 = target: T3, FLAG-tagged RORα1 (UniProt P35398); experiment: as above
T3 sequence: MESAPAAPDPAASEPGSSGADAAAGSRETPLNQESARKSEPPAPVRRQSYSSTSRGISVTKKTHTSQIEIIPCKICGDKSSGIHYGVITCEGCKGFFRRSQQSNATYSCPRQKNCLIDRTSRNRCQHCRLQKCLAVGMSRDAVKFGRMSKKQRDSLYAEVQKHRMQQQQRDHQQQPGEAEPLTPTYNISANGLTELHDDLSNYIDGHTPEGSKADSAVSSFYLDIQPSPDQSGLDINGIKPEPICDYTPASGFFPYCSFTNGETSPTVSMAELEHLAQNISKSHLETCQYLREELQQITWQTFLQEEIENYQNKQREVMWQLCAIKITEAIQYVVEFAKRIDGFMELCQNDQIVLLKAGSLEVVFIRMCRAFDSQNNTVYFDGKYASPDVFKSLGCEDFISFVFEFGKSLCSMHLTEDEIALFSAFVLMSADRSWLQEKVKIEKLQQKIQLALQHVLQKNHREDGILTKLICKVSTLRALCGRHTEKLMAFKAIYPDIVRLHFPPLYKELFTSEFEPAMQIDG

[3] = target: T1, FLAG–RORα2 WT (transfected) (human); experiment: condition: only with co-expressed SETD7 enzymatic mutant; co-IP; as a4, but cells co-transfected with the Hismax-SETD7 enzymatic mutant; anti-FLAG immunoprecipitation, anti-HA blot (Figure 4B)

| binding [1] | binding [2] | binding (FLAG-tagged RORα1) | binding [3] | Substance |
| --- | --- | --- | --- | --- |
| binds | – | – | – | GFP-pontin (from UniProt Q9Y265 1-456) |
| – | binds | binds | – | Grip1 (endogenous, co-purified from cell extracts) (from UniProt Q15596 1-1464) |
| binds | – | – | no binding | HA-Tip60 (from UniProt Q92993 1-513) |
| – | binds | no binding | – | Tip60 (endogenous, co-purified from cell extracts) (from UniProt Q92993 1-513) |
| – | binds | no binding | – | pontin (endogenous, co-purified from cell extracts) (from UniProt Q9Y265 1-456) |

— paper PMC7084544
